# Test results taken from the supplement of paper PMC11417369.
# ± gives the standard deviation of the averaged measurements. Some of the results follow.
# System: PfAP2-I AP2 domain 3 (GST-tagged)
# Test: gcPBM binding intensity (ln(normalized median fluorescence intensity)); higher = stronger DNA binding
# In short: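 After 1 h on an Agilent 4 × 180k array of primer-extended double-stranded 36-bp intergenic genomic probes and negative controls, bound GST-tagged P. falciparum DNA-binding domains were detected with Alexa488 anti-GST antibody and scanned at 488 nm. The domains had been expressed in E. coli, and binding took place in 1× PBS with 1% milk, 0.2 mg/ml BSA, 0.5% salmon testes DNA and 0.03% Triton X-100. Binding intensity is the highest Masliner-normalised natural-log median intensity across replicate spots of either probe orientation.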
row,Sequence,gcPBM binding intensity (ln)
1,TTTTTAAAAAGTAACACACACTCTTATATATAATGA [CACACA_site3618],7.82 ± 0.41
2,AAAAAAAACAGACACACACACATAAATATAAATAAA [CACACA_site6214],7.71 ± 0.39
3,AAAATAATAATAAATGCATGTGTTGTTTACTAAGAA [TGCATGCA_site528],8.2 ± 0.76
4,CTCCATATTAGACACACACACAAATGAAAAAAATAT [CACACA_site7420],8.13 ± 0.45
5,TAAAATTAAACAAAAAAAAAGAAAAAAAAAAAAAAG [CACACA_negctrl_site1098],7.62 ± 0.41
6,TGAACATACATCAAAAGTACAAACTCGCATGTTATA [XGTACX_site3320],7.5 ± 0.46
7,TACCTATACAGACACACACACACACGCCCACAAAAA [CACACA_site6375],8.34 ± 0.23
8,TTTTTATATTTATATAAATAAAAAAATAACAAAATG [XGTACX_negctrl_site231],8.02 ± 0.4
9,AATGTAGACACATATGTACACACATATATATGTATA [CACACA_site9014],7.82 ± 0.34
10,AATATTCTATATGATACATGCATGATGGAATAAAAA [TGCATGCA_site980],8.31 ± 0.71
11,TTTTGGTATACGTAATTATATAATATGTTAATCAAT [CACACA_negctrl_site645],7.86 ± 0.36
12,CCGCCATTGTACCATCCACACACATATATATATGTA [CACACA_site8866],8.61 ± 0.43
13,TTTGTTCTTTTTGAAGTGCACTGAAATATAACAAAA,11.3 ± 0.16
14,AAAAAAACACACACATATATATATATATATATATAT [GTGCAC_negctrl_site498],9.36 ± 0.4
15,AAGAAAAAGAATAACCTTATTTCTATATACTAATTT [TGCATGCA_negctrl_site477],7.3 ± 0.61
16,ATCAAAATTGTCATTACACACCTTTATTTTTATAAT [CACACA_site5071],8.05 ± 0.61
17,AATAATATATGGACATGTACATAATATATATTTTTT [XGTACX_site312],7.72 ± 0.19
18,TGTTTTATTTATTAAGCACACGCGATTTAAAAAATA [CACACA_site981],8.775 ± 0.049
19,TTCATATAATTCATCTGTACATATTGATAGTATGCA [XGTACX_site6386],7.7 ± 0.16
20,TCAAATGTGTAATCTTGTACACATTAAAAGAAAAAA [XGTACX_site8822],7.79 ± 0.57
21,ATATATATATATATATGTACATATGTCAACTGTCTA [XGTACX_site8636],9.41 ± 0.3
22,CATACATACAAACACACACACATATATATACATACA [CACACA_site852],7.96 ± 0.38
23,TATGTATTAATGAGAACATGCAAAATAATAAACAAT [TGCATGCA_site362],8.45 ± 0.59

row,Sequence,gcPBM binding intensity (ln)
1,ATATATCAAATAGACAAACACACAAAGGAAGAGTGA [CACACA_site3922],7.82 ± 0.48
2,CACAGACACGGACACACACACACACCCAGACACATA [CACACA_site4357],8.31 ± 0.21
3,CATATACACGAACACACACACACACGCACAAAAAAA [CACACA_site6376],8.37 ± 0.23
4,ATAATTAATGATGTATGTACGGAATTTATATATTTG [XGTACX_site5685],7.56 ± 0.34
5,GTATACATATTTATAATAATAAATGTCTTATATTTT [CACACA_negctrl_site688],7.55 ± 0.38
6,ATAGTAATAGAATGATTGCACTTAAATTTTCCCTCT,8.9 ± 0.26
7,TTAAATAATTCTTTTAGTACACACGAATAAGCAGAT [XGTACX_site623],8.28 ± 0.47
8,TAATATATTAATATATGTACGTATTTTTATTAATAT [XGTACX_site5346],7.83 ± 0.44
9,TATCTTATATATAAGTGTACGCAGATTCTTACGATA [XGTACX_site6058],7.92 ± 0.3
10,ATGTATTTATTTTAACGTACAAGATATTATTATTAT [XGTACX_site4609],7.79 ± 0.29
11,AAATTATATATGATGTGTACATAAATATATACACAT [XGTACX_site8761],7.74 ± 0.26
12,TTATTATTCAAGAGGAGTACATTATGTGTATAATAT [XGTACX_site4995],8.21 ± 0.16
13,TATATTTAGAGAGAGACACACAAAGGGACTTACACA [CACACA_site2545],7.82 ± 0.71
14,ATATGGCATATTTGTATTATACATACATATGTATCT [TGCATGCA_negctrl_site562],7.84 ± 0.57
15,AAATTATAATATAATACACACATAAAAAAAAAAAAA [CACACA_site7],7.97 ± 0.6
16,TGTTATTCTACATATACACACAAATAACAATTTAAA [CACACA_site1824],7.9 ± 0.48
17,AAAAAAAAAAAGAACACACACAGTGCACATTCGGTG [CACACA_site788],10.3 ± 0.3
18,AATACAAAAAAAGGTACACACATAATATATTTATTA [CACACA_site2628],7.83 ± 0.34
19,TTAACTTTTTTATATGCACACATAAACAAGGATATA [CACACA_site8932],9.57 ± 0.3
20,CTAATTGTGTATACCTGTACATATATATATATATAT [XGTACX_site416],9.3 ± 0.59
21,TTATTATTTGGTTATAGTACATAATATAATATATAT [XGTACX_site6911],7.85 ± 0.35
22,TATATATATATGTATGCATGTTGTTTTTTATTTAAT [TGCATGCA_site343],9.375 ± 0.092
23,CTATATTTCGTTGGACGTACAAATGTGATAATTAGG [XGTACX_site3232],8.06 ± 0.46

row,Sequence,gcPBM binding intensity (ln)
1,TTTGTTTGGTTTTGGTGTACTTTTTTTTTTTTTTCT [XGTACX_site2050],8.31 ± 0.29
2,GAATTATAAGAATAAACACACAAGCTTAAAAAAAAA [CACACA_site1204],7.64 ± 0.75
3,AGAATTCAACAATGTTGTACATACACACACACAAAA [XGTACX_site5035],8.21 ± 0.29
4,TTTCTTTTTTCACGTGCATGCCATTTAAGTATTAAT [TGCATGCA_site651],8.94 ± 0.71
5,ACTAAACTTATATGTACACACATATAACATTAATTT [CACACA_site2258],8.02 ± 0.45
6,ACATATGTATAATATGCACACGTCATTTTCCCCTTA [CACACA_site5194],8.98 ± 0.35
7,GTATTAATATATAATTGTACTTTTTTTTTTTTTTTT [XGTACX_site4369],8.48 ± 0.58
8,AAAAAAAACGGACACACACACATTCAATATAAAACA [CACACA_site4189],8.11 ± 0.25
9,TTCACATGAAGAATTAAAATAAAACTAGGAAATTAA [CACACA_negctrl_site1047],7.47 ± 0.59
10,TTTTTATATTTTACATGTACATAAATATATTATATA [XGTACX_site958],7.86 ± 0.46
11,AATAATGAATTGAAATGTACATATTTTTATTAATAC [XGTACX_site8899],7.69 ± 0.38
12,ATCACCAAATGGGCTATACAACAATGAGAAATGGTA [CACACA_negctrl_site48],7.8 ± 0.67
13,ATACGAAGAAATGTTCATTTATTTCGAACATTTAAT [CACACA_negctrl_site1481],7.36 ± 0.59
14,AATATAATATAATATAGTACGTAAAAATATTATACA [XGTACX_site2170],7.84 ± 0.2
15,TTTTTCATAAAACACACACACAAAAATAATGTGGAA [CACACA_site3687],7.79 ± 0.68
16,TCCACTTAACTCAATTGTACAAAAATAAAAATTAAA [XGTACX_site855],7.83 ± 0.13
17,TTTTATGCGCAATAAGTGCATTTAAAATATATATAT,11 ± 0.13
18,ATAATATATATATATATATTATCAAATATATATATA [GTGCAC_negctrl_site346],8.63 ± 0.33
19,TGTGTATATCGATAAAGTACATTTGAAAAGTGACTT [XGTACX_site6957],7.62 ± 0.51
20,GTAATATGTATCCATACACACATACAGTTTATTTGC [CACACA_site6540],7.88 ± 0.52
21,ATAATAATAATAAAAAGTACAAATTATTATATATAT [XGTACX_site5160],8.25 ± 0.52
22,TGTATGCTTACATAATGTACGGAAAAATAAAGGCAT [XGTACX_site6923],8.62 ± 0.83
23,ATATATAAATAATGTTGTACGTATTTCAAAAGTATG [XGTACX_site3363],7.87 ± 0.3

row,Sequence,gcPBM binding intensity (ln)
1,TGCTCTCTCTTGTTGTGTACATAATACAATATATAT [XGTACX_site7427],8.49 ± 0.26
2,TACATTTAAAAAAAAACACACATATATATATATATA [CACACA_site2535],9.45 ± 0.35
3,ATATATTTGTATAATAGTACGTACAGGCAAAATATA [XGTACX_site7396],8.38 ± 0.38
4,AAAAAAAAAAAACACACACACACATACCCATACATA [CACACA_site5575],7.9 ± 0.37
5,TTTCTTTTTATATTCACACATAAATATATATATATA [CACACA_site6053],9.14 ± 0.16
6,TATATAAGGAAATATTGTACTTTTATATTTATATTA [XGTACX_site3814],7.44 ± 0.34
7,ATATAAAAATATAATACACACATAAAATATATTATA [CACACA_site969],7.75 ± 0.19
8,AGATATAAGAAAAGCACACACACACTAGAAAAAAAA [CACACA_site5559],8.27 ± 0.42
9,TAATTCTTGTAAAATGTGCGCAGTAGATATAGTTTT,8.57 ± 0.52
10,ATATTTATTCAATCCAGTACATATTATATATTGTAT [XGTACX_site184],7.68 ± 0.56
11,ATAAAATTATATACGTGTACATATATATATTTATGT [XGTACX_site4653],8.14 ± 0.82
12,TATAAAAGTGGACACACACACATATATATATATATA [CACACA_site4673],9.47 ± 0.55
13,ACACATCAAATATAAAAAAAAAATAACTATAAATAA [CACACA_negctrl_site587],7.39 ± 0.51
14,CCTTTAAGCAAAAACACACACACATATTTATTTATA [CACACA_site6294],7.79 ± 0.47
15,AATTTTTTTTTTTTGTTGCACTTTTAGAGTTTTAAT [GTGCAC_site9519],9.78
16,TAATAAATAGGACACACACACATATTTATATATCAT [CACACA_site6771],7.88 ± 0.52
17,TTGCAAAATTGTTTTATCACAAATATATACTTAATA [CACACA_negctrl_site403],7.55 ± 0.49
18,TAATTATTTTCGGTACGTACTAATGTATATATAATT [XGTACX_site3895],7.84 ± 0.44
19,TAATAATTTTTTTTTTTTTTTTACGAAAATATGATT [GTGCAC_negctrl_site323],7.27 ± 0.4
20,ATAATAAGAACTCAGTGTACTATCCTTTGAATTAAC [XGTACX_site8117],7.83 ± 0.56
